In paper PMC6255862, “A quaternary tetramer assembly inhibits the deubiquitinating activity of USP25” (Nature Communications, 2018):
No constants are given. Whether binding was seen depends on the method and setting. Binding seen in cells or lysates may run through a third protein. Some results given as binding are weak or reduced against the parent protein; the word gives no strength.

Chains of the proteins cited; added tags and fusions are not shown. Lines headed by an entry give the natural chain unless they say otherwise; changes in a name come on top. A line that says so, or that is headed by a name, gives the form on record, which may keep a tag or linker. Residues count along the entry.
UniProt Q9UHP3: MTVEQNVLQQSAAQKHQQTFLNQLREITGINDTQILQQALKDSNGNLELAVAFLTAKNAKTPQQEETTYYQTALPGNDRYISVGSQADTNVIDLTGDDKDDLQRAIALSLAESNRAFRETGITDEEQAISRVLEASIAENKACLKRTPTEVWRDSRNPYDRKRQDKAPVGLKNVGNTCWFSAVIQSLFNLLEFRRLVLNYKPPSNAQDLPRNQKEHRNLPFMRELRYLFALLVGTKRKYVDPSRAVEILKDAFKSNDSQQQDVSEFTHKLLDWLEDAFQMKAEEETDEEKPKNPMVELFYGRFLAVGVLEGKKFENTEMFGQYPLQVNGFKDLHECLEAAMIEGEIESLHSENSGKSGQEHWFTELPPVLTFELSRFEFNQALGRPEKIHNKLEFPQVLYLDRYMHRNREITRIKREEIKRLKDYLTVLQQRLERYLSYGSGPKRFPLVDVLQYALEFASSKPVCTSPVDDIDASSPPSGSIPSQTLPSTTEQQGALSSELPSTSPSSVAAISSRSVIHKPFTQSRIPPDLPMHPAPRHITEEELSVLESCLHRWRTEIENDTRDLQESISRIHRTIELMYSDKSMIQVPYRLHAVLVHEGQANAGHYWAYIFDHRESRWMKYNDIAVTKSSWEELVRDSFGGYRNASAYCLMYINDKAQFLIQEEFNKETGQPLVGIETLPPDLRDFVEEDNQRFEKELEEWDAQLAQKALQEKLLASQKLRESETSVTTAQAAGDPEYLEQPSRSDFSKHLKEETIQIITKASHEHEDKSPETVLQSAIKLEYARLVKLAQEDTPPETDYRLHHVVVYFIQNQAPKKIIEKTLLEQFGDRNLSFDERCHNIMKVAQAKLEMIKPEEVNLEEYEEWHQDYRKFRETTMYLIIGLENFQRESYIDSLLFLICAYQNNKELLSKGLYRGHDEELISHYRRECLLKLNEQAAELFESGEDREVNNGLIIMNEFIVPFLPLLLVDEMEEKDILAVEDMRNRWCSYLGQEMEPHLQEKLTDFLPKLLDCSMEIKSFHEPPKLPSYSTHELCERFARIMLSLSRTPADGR
Flag-USP25NCD: residues 18-714 of Q9UHP3
Flag-USP25FL ΔIL (Q9UHP3, form named): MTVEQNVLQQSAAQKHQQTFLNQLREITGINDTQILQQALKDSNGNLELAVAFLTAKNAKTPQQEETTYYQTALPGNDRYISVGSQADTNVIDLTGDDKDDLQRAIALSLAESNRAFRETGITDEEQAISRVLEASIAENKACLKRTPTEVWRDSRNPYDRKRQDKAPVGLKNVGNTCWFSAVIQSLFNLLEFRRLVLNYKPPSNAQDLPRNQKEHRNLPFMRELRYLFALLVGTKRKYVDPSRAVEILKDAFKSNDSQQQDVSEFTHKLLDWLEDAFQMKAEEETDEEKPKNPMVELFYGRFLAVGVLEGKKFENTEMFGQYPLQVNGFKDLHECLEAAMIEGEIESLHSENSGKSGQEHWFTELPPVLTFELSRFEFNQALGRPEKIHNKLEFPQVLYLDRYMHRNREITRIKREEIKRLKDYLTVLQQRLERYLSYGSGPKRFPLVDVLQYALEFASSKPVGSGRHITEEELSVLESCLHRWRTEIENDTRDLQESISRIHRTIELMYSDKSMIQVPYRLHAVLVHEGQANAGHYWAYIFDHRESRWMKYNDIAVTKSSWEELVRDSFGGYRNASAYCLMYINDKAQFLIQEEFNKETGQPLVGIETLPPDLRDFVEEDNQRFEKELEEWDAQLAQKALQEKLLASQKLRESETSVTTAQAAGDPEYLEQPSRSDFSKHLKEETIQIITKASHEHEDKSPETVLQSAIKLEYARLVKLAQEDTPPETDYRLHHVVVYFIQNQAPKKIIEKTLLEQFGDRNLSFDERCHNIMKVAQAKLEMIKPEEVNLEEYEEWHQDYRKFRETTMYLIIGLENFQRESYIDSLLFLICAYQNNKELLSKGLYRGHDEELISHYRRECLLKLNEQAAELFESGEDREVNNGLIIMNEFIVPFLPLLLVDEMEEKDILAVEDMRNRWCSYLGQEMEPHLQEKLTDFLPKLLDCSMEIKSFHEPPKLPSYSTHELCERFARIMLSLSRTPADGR
Flag-USP25NCD ΔIL (Q9UHP3, form named): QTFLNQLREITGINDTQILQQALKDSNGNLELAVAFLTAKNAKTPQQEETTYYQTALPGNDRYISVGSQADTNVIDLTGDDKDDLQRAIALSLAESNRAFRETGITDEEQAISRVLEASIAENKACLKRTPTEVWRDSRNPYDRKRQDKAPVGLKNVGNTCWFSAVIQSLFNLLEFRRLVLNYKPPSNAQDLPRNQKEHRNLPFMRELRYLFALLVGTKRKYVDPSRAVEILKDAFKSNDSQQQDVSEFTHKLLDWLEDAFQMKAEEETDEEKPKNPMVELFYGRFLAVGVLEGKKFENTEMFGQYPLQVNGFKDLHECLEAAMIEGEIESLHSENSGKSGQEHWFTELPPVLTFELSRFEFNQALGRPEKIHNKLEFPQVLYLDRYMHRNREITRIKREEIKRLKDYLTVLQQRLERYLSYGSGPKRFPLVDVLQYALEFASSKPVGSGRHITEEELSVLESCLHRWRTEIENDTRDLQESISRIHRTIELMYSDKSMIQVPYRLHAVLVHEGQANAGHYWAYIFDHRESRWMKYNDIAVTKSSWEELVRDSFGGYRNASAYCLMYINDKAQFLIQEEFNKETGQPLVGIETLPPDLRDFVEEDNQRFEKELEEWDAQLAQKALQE
UniProt O95271: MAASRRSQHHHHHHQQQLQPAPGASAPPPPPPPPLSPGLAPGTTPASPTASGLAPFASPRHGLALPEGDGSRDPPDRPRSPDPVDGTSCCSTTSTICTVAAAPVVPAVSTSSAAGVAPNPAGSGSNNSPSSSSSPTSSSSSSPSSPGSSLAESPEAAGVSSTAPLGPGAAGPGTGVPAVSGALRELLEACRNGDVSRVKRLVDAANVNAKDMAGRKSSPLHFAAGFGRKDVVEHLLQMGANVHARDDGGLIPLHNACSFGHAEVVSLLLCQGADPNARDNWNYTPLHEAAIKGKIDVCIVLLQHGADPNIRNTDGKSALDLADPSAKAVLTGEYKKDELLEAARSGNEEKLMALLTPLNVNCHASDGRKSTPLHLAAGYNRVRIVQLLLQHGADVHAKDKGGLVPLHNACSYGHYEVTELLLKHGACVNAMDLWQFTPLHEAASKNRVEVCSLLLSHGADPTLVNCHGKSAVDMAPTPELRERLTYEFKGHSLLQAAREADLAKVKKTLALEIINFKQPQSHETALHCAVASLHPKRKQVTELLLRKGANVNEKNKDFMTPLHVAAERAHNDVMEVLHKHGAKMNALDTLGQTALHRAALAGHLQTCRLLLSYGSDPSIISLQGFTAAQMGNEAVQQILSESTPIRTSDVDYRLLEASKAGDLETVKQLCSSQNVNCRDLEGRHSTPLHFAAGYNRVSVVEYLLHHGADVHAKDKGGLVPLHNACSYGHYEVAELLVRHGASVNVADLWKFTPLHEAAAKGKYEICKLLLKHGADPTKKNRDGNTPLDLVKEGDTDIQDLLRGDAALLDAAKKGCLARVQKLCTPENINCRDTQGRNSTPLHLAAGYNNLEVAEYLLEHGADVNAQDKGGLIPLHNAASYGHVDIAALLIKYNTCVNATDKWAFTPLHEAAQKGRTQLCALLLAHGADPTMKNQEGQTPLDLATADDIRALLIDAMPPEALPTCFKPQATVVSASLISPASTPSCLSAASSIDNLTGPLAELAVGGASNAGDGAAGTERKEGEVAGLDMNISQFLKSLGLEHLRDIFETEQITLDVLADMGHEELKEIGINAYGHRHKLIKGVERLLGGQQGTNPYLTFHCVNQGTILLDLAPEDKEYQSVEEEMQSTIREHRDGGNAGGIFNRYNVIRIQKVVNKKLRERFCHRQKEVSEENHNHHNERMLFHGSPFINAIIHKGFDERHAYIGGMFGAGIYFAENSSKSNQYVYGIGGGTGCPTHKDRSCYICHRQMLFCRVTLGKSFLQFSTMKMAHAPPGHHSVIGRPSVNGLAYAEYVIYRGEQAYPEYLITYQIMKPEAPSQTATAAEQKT

B1: tankyrase 2 (endogenous) (protein, UniProt Q9H2K2 1-1166)
chain: MSGRRCAGGGAACASAAAEAVEPAARELFEACRNGDVERVKRLVTPEKVNSRDTAGRKSTPLHFAAGFGRKDVVEYLLQNGANVQARDDGGLIPLHNACSFGHAEVVNLLLRHGADPNARDNWNYTPLHEAAIKGKIDVCIVLLQHGAEPTIRNTDGRTALDLADPSAKAVLTGEYKKDELLESARSGNEEKMMALLTPLNVNCHASDGRKSTPLHLAAGYNRVKIVQLLLQHGADVHAKDKGDLVPLHNACSYGHYEVTELLVKHGACVNAMDLWQFTPLHEAASKNRVEVCSLLLSYGADPTLLNCHNKSAIDLAPTPQLKERLAYEFKGHSLLQAAREADVTRIKKHLSLEMVNFKHPQTHETALHCAAASPYPKRKQICELLLRKGANINEKTKEFLTPLHVASEKAHNDVVEVVVKHEAKVNALDNLGQTSLHRAAYCGHLQTCRLLLSYGCDPNIISLQGFTALQMGNENVQQLLQEGISLGNSEADRQLLEAAKAGDVETVKKLCTVQSVNCRDIEGRQSTPLHFAAGYNRVSVVEYLLQHGADVHAKDKGGLVPLHNACSYGHYEVAELLVKHGAVVNVADLWKFTPLHEAAAKGKYEICKLLLQHGADPTKKNRDGNTPLDLVKDGDTDIQDLLRGDAALLDAAKKGCLARVKKLSSPDNVNCRDTQGRHSTPLHLAAGYNNLEVAEYLLQHGADVNAQDKGGLIPLHNAASYGHVDVAALLIKYNACVNATDKWAFTPLHEAAQKGRTQLCALLLAHGADPTLKNQEGQTPLDLVSADDVSALLTAAMPPSALPSCYKPQVLNGVRSPGATADALSSGPSSPSSLSAASSLDNLSGSFSELSSVVSSSGTEGASSLEKKEVPGVDFSITQFVRNLGLEHLMDIFEREQITLDVLVEMGHKELKEIGINAYGHRHKLIKGVERLISGQQGLNPYLTLNTSGSGTILIDLSPDDKEFQSVEEEMQSTVREHRDGGHAGGIFNRYNILKIQKVCNKKLWERYTHRRKEVSEENHNHANERMLFHGSPFVNAIIHKGFDERHAYIGGMFGAGIYFAENSSKSNQYVYGIGGGTGCPVHKDRSCYICHRQLLFCRVTLGKSFLQFSAMKMAHSPPGHHSVTGRPSVNGLALAEYVIYRGEQAYPEYLITYQIMRPEGMVDG

Experiments:
Experiment in all cases: co-IP; anti-Flag M2 affinity gel on 5 mg of extract of transfected HEK293T cells in Triton lysis buffer, overnight at 4 °C; western blot with anti-Flag and anti-TNKS1/2
Flag-USP25FL (human) = Flag-USP25FL (human) (UniProt Q9UHP3)
Flag-USP25FL ΔIL (human) = Flag-USP25FL ΔIL (human) (UniProt Q9UHP3)
Flag-USP25NCD (human) = Flag-USP25NCD (human) (UniProt Q9UHP3)
[1] = molecular target: Flag-USP25NCD ΔIL (human) (UniProt Q9UHP3)

Row | Molecule | binding (Flag-USP25FL (human)) | binding (Flag-USP25FL ΔIL (human)) | binding (Flag-USP25NCD (human)) | binding [1]
1 | tankyrase 1 (endogenous) (from UniProt O95271 1-1327) | binds | binds | no binding | no binding
2 | B1 | binds | binds | no binding | no binding
